Results published in PubChem BioAssay AID686978 (National Center for Advancing Translational Sciences (NCATS), 2013).
In all, about 420,000 compounds went through this assay and about 64,000 (15%) were called active. This list was built around the results that the source calls inconclusive (neither active nor inactive); the mix of calls is not that of the screen. Calls follow the shape of the dose curve; as a rule, active = well fitted inhibition curve with a large enough effect; inconclusive = small, poorly fitted or top-dose-only effect; inactive = flat fitted curve, though single readings scatter. Potencies of inconclusive entries are left out as doubtful fits.

Assay: qHTS for Inhibitors of human tyrosyl-DNA phosphodiesterase 1 (TDP1): qHTS in cells in absence of CPT; also: nearly all actives have a fitted effect of over 55% in size
Conditions: DT40 Tdp1-/- hTDP1 cells, no CPT, ATP luminescence, 48 h; activity change, negative = growth inhibition: at 46.2 µM (top of the series) unless noted
Method in brief: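 Compound effects on proliferation are scored in DT40 Tdp1-/-;hTDP1 cells in the absence of CPT. ATP levels (CellTiter-Glo luminescence) are recorded after a ≥48 hr, 37 °C incubation.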
% is scaled to controls: 0 for no effect and ±100 for the full control effect; potency is read from the fitted curve at half-maximal effect; tags tell the direction and shape of the fitted curve.

Row | SMILES | Potency | activity change, negative = growth inhibition
1 | CCCc1cc2c(=O)c(-c3ccc4c(c3)OCCO4)coc2cc1OC(=O)c1ccco1 | inconclusive [inhibitor, single point] | 
2 | Cn1cnc(S(=O)(=O)N2CCC(C(=O)NCc3ccc(Cl)cc3)CC2)c1 | inconclusive [inhibitor, full curve, poor fit] | 
3 | Cc1c(OCC(=O)NCc2ccccn2)ccc2c(-c3ccccc3)cc(=O)oc12 | inconclusive [inhibitor, partial curve] | 
4 | COc1ccc2sc(N(CCN(C)C)C(=O)c3ccc4ccccc4c3)nc2c1 | inconclusive [inhibitor, single point] | 
5 | Cc1nc2cc(F)ccc2n1C1CCN(C(=O)c2ccc(F)cc2F)CC1 | inconclusive [inhibitor, partial curve, poor fit] | 
6 | O=[N+]([O-])c1cccc(S(=O)(=O)Nc2ccc(Cc3ccncc3)cc2)c1 | inconclusive [inhibitor, partial curve, poor fit] | 
7 | Cc1ccc(NC(=O)C2CCCN2C(=O)Oc2ccccc2)cc1C (stereo not given) |  | inactive: 0.625%
8 | C[C@H]1CN([C@@H](C)CO)C(=O)Cc2cc(NC(=O)Cc3ccccc3)ccc2O[C@H]1CN(C)C(=O)Nc1cccc2ccccc12 |  | inactive: -12.3%
9 | C=CCn1c(SCC(=O)c2ccc(F)cc2)nnc1-c1ccc2c(c1)OCO2 | inconclusive [inhibitor, partial curve, poor fit] | 
10 | Cc1ccc(C(=O)NC(=S)Nc2ccc(NC(=O)c3cccc(Cl)c3)cc2)cc1 | inconclusive [inhibitor, full curve] | 
11 | O=C(Cc1ccccc1)N(Cc1cccnc1)c1nc2ccc(F)cc2s1 |  | inactive: -6.6%
12 | COc1ccccc1CNC(=O)Cc1ccc(C)cc1 | inconclusive [inhibitor, single point] | 
13 | CSc1ccccc1C(=O)Nc1ccc(C)c(C)c1 | inconclusive [inhibitor, single point] | 
14 | Cc1nc(-c2cccc(S(=O)(=O)N3CC(C)OC(C)C3)c2)cs1 (stereo not given) |  | inactive: -20.9%
15 | CCN(CC(=O)NC(=O)NCc1ccccc1)Cc1nc2ccccc2c(=O)[nH]1 |  | inactive: -25.3%
16 | O=C(Nc1cccc2cccnc12)c1ccc(F)cc1 | inconclusive [inhibitor, single point] | 
17 | COc1cc(C(=O)C(=O)N2CCC(Cc3ccccc3)CC2)cc2ccccc12 | active: 23.1 µM | 
18 | COc1ccccc1CNC1CCN(Cc2ccccc2)CC1 | inconclusive [inhibitor, single point] | 
19 | CCc1ccc2oc(-c3ccc(NC(=O)c4cc(OC)c(OC)c(OC)c4)cc3)nc2c1 | inconclusive [inhibitor, partial curve] | 
20 | CCOc1cc(C2CC(=O)Nc3nc(SCc4ccccc4)[nH]c(=O)c32)ccc1O (stereo not given) | inconclusive [inhibitor, single point] | 
21 | CCC(C)SCC(=O)Nc1ccc(S(=O)(=O)N2CCOCC2)cc1OC (stereo not given) |  | inactive: -20.2%
22 | O=C1C(Nc2ccccc2)=CC(c2ccc(O)cc2)N1c1ccccc1 (stereo not given) | inconclusive [inhibitor, partial curve] | 
23 | O=C(NCCNC(=O)c1cnccn1)c1cccc(Cl)c1 | inconclusive [inhibitor, full curve] | 

Row | SMILES | Potency | activity change, negative = growth inhibition
24 | O=C(CCC(=O)OCc1ccc(C(=O)Oc2ccc(Cl)cc2)cc1)Nc1ccccc1 |  | inactive: 6.95%
25 | Cc1ccc(C)c(N(C(=O)CS(=O)CC(=O)Nc2ccc3c(c2)OCO3)C(C)C(=O)NC2CCCC2)c1 (stereo not given) | inconclusive [inhibitor, single point] | 
26 | O=C(N/N=C/c1ccc[nH]1)c1c[nH]c2ccccc12 |  | inactive: 13.6%
27 | O=C(COc1ccccc1)Nc1nnc(S(=O)(=O)N2CCCCCC2)s1 | inactive | 
28 | Cc1ccccc1-c1nnc(C2CCN(S(=O)(=O)c3ccc(Cl)cc3)CC2)o1 | active: 3.66 µM | 
29 | CCc1ccc(CNC(=O)CCCN2C(=O)c3cccnc3Oc3ccc(Cl)cc32)cc1 | active: 18.4 µM | 
30 | COc1cccc(C(N)c2nc(-c3cc(F)cc(F)c3)cs2)c1 (stereo not given) | inconclusive [inhibitor, single point] | 
31 | O=C(CSCc1ccc([N+](=O)[O-])cc1)Nc1cccc(C(=O)Nc2ccccc2C(=O)O)c1 |  | inactive: -1.66%
32 | COc1cccc(NC(=O)CSc2nc3ccc(NC(=O)c4ccco4)cc3s2)c1 | active: 18.4 µM | 
33 | O=C(Nc1ccc(Cc2ccncc2)cc1)c1ccc(N2CCOCC2)c([N+](=O)[O-])c1 | inconclusive [inhibitor, single point] | 
34 | Cc1nc(-c2ccc(NC(=O)C3CC3)cc2)cs1 | active: 18.4 µM | 
35 | COc1ccc(S(=O)(=O)N2CCN(C(=O)c3c(C)nn(-c4ccccc4)c3C)CC2)cc1 | inconclusive [inhibitor, single point] | 
36 | CCc1nn(CC(=O)NCCCOC)c(=O)c2cc3occc3n12 |  | inactive: -9.13%
37 | Cc1cccc(C(=O)NN(C)c2nc(-c3ccccc3)nnc2C(F)(F)F)c1 | active: 2.59 µM | 
38 | O=C(c1ccc([N+](=O)[O-])cc1[N+](=O)[O-])n1cnc2ccccc21 | inconclusive [inhibitor, single point] | 
39 | CCN(CC)C(=O)CSc1nnc2nnc3cc(Cl)ccc3n12 | inconclusive [inhibitor, partial curve, poor fit] | 
40 | CC(C)=CCC/C(C)=C/CNC(=O)C[C@H]1C[C@H](C(=O)N2CCCCC2)[C@@]2(C)c3[nH]c4cc(CCC(=O)N(C)C)ccc4c3CCN2C1=O | active: 14.6 µM | 
41 | Cc1ccc(SC(C)C(=O)Nc2cccc(N(C)S(C)(=O)=O)c2)cc1 (stereo not given) | inconclusive [inhibitor, partial curve] | 
42 | Cc1ccc(SC(=O)COc2ccc(C)c(C)c2)cc1 |  | inactive: -15.4%
43 | COn1c(SCc2ccc(C)cc2C)nc2ccccc2c1=O | active: 18.4 µM | 
44 | CC(=O)Nc1ccc(OCC(O)Cn2c3ccccc3c3ccccc32)cc1 (stereo not given) | inconclusive [inhibitor, single point] | 
45 | CCCC(=O)Nc1nnc(S(=O)(=O)N2CCCC2)s1 |  | inactive: -19.4%
